# The campaign covered roughly 340,000 compounds. About 6,900 (2%) were called active. Cut-off read from the data, not from the text of the source: active = inhibition above about 30%; inactive = below that, where a call was filed. The list shows a part of the results, in another mix than the full data. Entries without a call were filed so in the source.
# Target: D(2) dopamine receptor (Homo sapiens) (UniProt P14416)
# Test: HTS Assay for Allosteric Antagonists of the Human D2 Dopamine Receptor: Primary Screen for Antagonists; note: 0% is about no effect
# Settings: HEK293 TREx D2 cells, calcium flux, dopamine EC80; at 10 µM; stronger effect = higher value
# Method in brief: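 Inhibition of EC80 dopamine-driven calcium flux, recorded kinetically, defines activity here; cells are a tetracycline-induced HEK293 T-REx line expressing force-coupled D2.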
# Sequence of UniProt P14416 (P14416 whole entry, looked up): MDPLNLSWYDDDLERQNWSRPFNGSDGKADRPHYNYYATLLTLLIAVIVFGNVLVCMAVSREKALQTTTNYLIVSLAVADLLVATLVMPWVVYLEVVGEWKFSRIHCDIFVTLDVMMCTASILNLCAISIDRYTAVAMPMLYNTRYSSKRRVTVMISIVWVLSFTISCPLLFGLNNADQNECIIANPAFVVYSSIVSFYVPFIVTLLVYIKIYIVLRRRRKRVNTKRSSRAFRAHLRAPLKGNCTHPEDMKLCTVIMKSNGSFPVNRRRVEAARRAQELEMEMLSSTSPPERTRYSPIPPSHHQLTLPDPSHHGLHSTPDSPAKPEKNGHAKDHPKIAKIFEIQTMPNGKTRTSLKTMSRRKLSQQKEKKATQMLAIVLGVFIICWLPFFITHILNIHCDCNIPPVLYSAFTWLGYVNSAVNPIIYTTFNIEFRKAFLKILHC
row,Structure (SMILES),inhibition
1,Cc1ccc2c(c1)-c1c(c(C(=O)NCCc3ccccc3)nn1C)CS2,-5.34%
2,Cc1cccc(CS(=O)(=O)Cc2ccc(C(=O)NC(C)c3ccccc3)o2)c1 (stereo unspecified),10.9%
3,CCCN(C(=O)Cc1c(C(=O)O)[nH]c2ccc(Cl)cc12)c1ccc(OCC)cc1,-5.54%
4,CCCCN(CC)CCCNC(=O)C1CCN(c2nc3ccc(CC)cc3s2)CC1,1.91%
5,CCOc1ccc(-c2csc(-c3nc(-c4ccc(Br)s4)cs3)n2)cc1,-0.439%
6,Cc1ccc(NC(=O)C2CCN(c3nnc(-n4cccc4)s3)CC2)cc1Cl,-3.91%
7,Cc1nnc(SCC(=O)NCc2ccc(N(C)C)cc2)c2nn(-c3ccccc3)c(C)c12,2.73%
8,CN(CC(=O)Nc1cc(S(=O)(=O)N2CCCC2)ccc1Cl)Cc1ccc2c(c1)OCO2,active: 31.7%
9,CNCC(O)c1ccc(O)c(O)c1 (stereo unspecified),active: 84.7%
10,COc1cccc(C(c2c(O)cc(C)n(Cc3ccco3)c2=O)N2CCC(C)CC2)c1 (stereo unspecified),4.78%
11,CN(CCCCOc1ccc(F)cc1)Cc1ccccc1,active: 33.3%
12,O=C(NCc1ccccc1)c1cc2ccccc2o1,6.61%
13,COc1ccc(OC)c2sc(N(Cc3cccnc3)C(=O)c3ccc(C(C)=O)cc3)nc12,21.1%
14,COc1ccccc1C(=O)Nc1ccccc1SCc1cc(=O)c2ccccc2[nH]1,-13.7%
15,CCN(CC)C(=O)Cn1c(=O)n(CCCCCC(=O)NCc2ccccc2)c(=O)c2sccc21,-21%
16,CCOC(=O)N1CCN(C(=O)C(=O)Nc2sc3c(c2C(N)=O)CC(C)(C)OC3)CC1,active: 33%
17,O=C(c1ccc2c(c1)N(Cc1ccccc1F)C(=O)c1ccccc1S2=O)N1CCCCC1 (stereo unspecified),12.2%
18,CN1CCN(c2ccc(Cl)cc2NC(=O)CC2OC(=O)c3ccccc32)CC1 (stereo unspecified),active: 38.5%
19,Cc1ccn(CC(C)C(=O)O)n1 (stereo unspecified),active: 33.9%
20,O=C(NC1CC(=O)N(c2ccc(F)cc2)C1)C1CCCCC1 (stereo unspecified),8.38%
21,CCOc1cc(/C=C(\C#N)C(=O)Nc2ccccc2C)ccc1OCc1cc(=O)n2nc(CC)sc2n1,1.23%

row,Structure (SMILES),inhibition
1,CCCCCn1c(=N)c(S(=O)(=O)c2ccccc2)cc2c(=O)n3cccc(C)c3nc21,-9.15%
2,Cc1cc(Nc2ccc(C(C)C)cc2)nc(-n2nc(C)cc2C)n1,-7.09%
3,COc1ccc(NC(=O)CN(C)S(=O)(=O)c2ccc3c(c2)CCCN3C(C)=O)cc1Cl,-14.7%
4,CC(C)Oc1cccc(C(=O)Nc2ccc(-c3nc4cc(Cl)cc(Cl)c4o3)cc2)c1,4.03%
5,C=CCN(c1ccccc1)S(=O)(=O)c1cccc(C(=O)NC2CCN(Cc3ccccc3)CC2)c1,active: 66.4%
6,Cc1nnc(SCc2ccccc2Cl)c2cc3occc3n12,14.2%
7,Cc1cccc2sc(N(Cc3cccnc3)C(=O)Cc3ccccc3)nc12,-26.9%
8,Cc1ccc(OCC(O)CN2CCN(CC(O)COc3ccc(C)cc3Cl)CC2)c(Cl)c1 (stereo unspecified),active: 78.4%
9,Cc1ccc(NC(=O)CSc2nc(-c3cccs3)cc(C(F)(F)F)n2)cc1C,10.5%
10,Oc1c(CN2CCN(c3ccccc3)CC2)cc(Br)c2cccnc12,active: 59.3%
11,COc1cc(-c2noc(-c3ccc(NC4CCCCC4)c([N+](=O)[O-])c3)n2)cc(OC)c1OC,23%
12,CSc1cccc(N2C(=O)N(CC(=O)NCc3ccccc3Cl)c3ccccc3S2(=O)=O)c1,1.86%
13,COc1ccccc1-n1ncc2c(=O)[nH]c(SCC(=O)Nc3cccc(F)c3)nc21,-7.97%
14,CC(C)CCOc1ccc(Oc2nc(N(C)C)nc(N(C)C)n2)nn1,-7.7%
15,CCOc1ccccc1N(C)C(=O)Cn1cnc2onc(-c3ccc(F)cc3)c2c1=O,9.7%
16,Cc1ccc(NC(=O)C(Cc2ccccc2)n2cccc2)c(C)c1 (stereo unspecified),4.9%
17,Cc1cc(=O)n2c(C(=O)Nc3ccc(F)c(Cl)c3)c(C(=O)Nc3cccc(C)c3C)sc2n1,10.2%
18,COc1ccc(CNC(=O)c2ccc3c(c2)NC(=O)C(CS(=O)(=O)Cc2ccccc2Cl)N3)cc1 (stereo unspecified),8.49%
19,O=C(c1ccc2c(c1)N(Cc1cccc(Cl)c1)C(=O)c1ccccc1S2(=O)=O)N1CCC(Cc2ccccc2)CC1,-10.2%
20,CCOc1ccccc1CNC(=O)CN1C(=O)CCn2nc(-c3cn(C)c4ccccc34)cc21,1.74%
21,Cc1nc2ccc(S(=O)(=O)N(CC(=O)Nc3ccc(Cl)cc3)Cc3ccccc3)cc2s1,5.68%

row,Structure (SMILES),inhibition
1,COc1cc(Cl)c(C)cc1Nc1c2c(nc3ccccc13)CCC2,-4.09%
2,CCc1cccc(CC)c1NC(=O)c1c(C)oc2ccc(O)c(CN3CCOCC3)c12,6.59%
3,CCOC(=O)c1cccc(NS(=O)(=O)c2c(C)nc3sc(C)cn3c2=O)c1,-6.7%
4,Cc1cccc(NC(=O)CSc2cn(CC(=O)N3CCOCC3)c3ccccc23)c1,14.2%
5,COc1ccc(S(=O)(=O)N(CCc2ccccc2)CC(=O)Nc2cc(C)ccc2C)cc1,-16%
6,CCn1cc(C(=O)NCCOC)c(=O)c2cc(S(=O)(=O)N3CCOCC3)ccc21,1.98%
7,CCc1ccc(NC(=O)C2CCN(S(=O)(=O)c3c(C)noc3/C=C/c3cccs3)CC2)cc1,12.7%
8,CCSc1nnc2c(n1)OC(c1ccc(OCC(=O)O)cc1)Nc1ccccc1-2 (stereo unspecified),-0.102%
9,O=C(CCC1N=C2c3ccccc3N=C(SCC(=O)Nc3ccccc3F)N2C1=O)NCc1cccs1 (stereo unspecified),0.623%
10,CCOC(=O)C1=C(c2ccccc2)Nc2ncnn2C1c1ccc(Cl)cc1 (stereo unspecified),20.2%
11,COc1ccc(C(=O)CCN2CCN(c3ccccc3F)CC2)cc1,active: 81.5%
12,Cc1ccc(SCc2nc(-c3ccc(C(=O)NCc4ccccc4Cl)cc3)oc2C)cc1,8.6%
13,CC(=O)Nc1cccc(NC(=O)C2(c3cccs3)CCOCC2)c1,14.1%
14,COc1cccc(-c2nnc3n(CCc4ccccc4)c(=O)c4ccccc4n23)c1O,-19.3%
15,CCOC(=O)CC(=O)CSc1nc2ccccc2c(=O)n1CCc1ccccc1,5.77%
16,Cn1c(=O)c(=O)n(C)c2cc(N3CCCC3)c(NC(=O)c3ccc(C(C)(C)C)cc3)cc21,-1.31%
17,COc1ccc(C)cc1NC(=O)C1CCCN(S(=O)(=O)c2ccc3c(c2)oc(=O)n3C)C1 (stereo unspecified),8.17%
18,COc1cc(C(=O)NC2CCN(Cc3ccccc3)CC2)cc(Cl)c1OC(C)C,active: 47.6%
19,CC(=O)Nc1ccc(S(=O)(=O)N2CCN(c3ccccc3)CC2)cc1,-12%
